According to PubChem BioAssay (Tox21):
Values joined by “and” are separate entries in the source; they are usually repeats but may differ in a detail not shown here. Equal entries are not always repeated. Inconclusive means that the source gave no clear call. Such entries were picked first, then a sample of the others. Where the call is inconclusive, the potency comes from a doubtful curve fit. Active and inactive are the calls of the source. Unless noted, calls follow the shape of the dose curve; as a rule, active = well fitted cell-killing curve with a large enough effect in the repeat runs; inconclusive = weak or mixed curves; inactive = no such curve, though single readings can be large or run the other way. Bridge positions count the residues as written; N and C are the ends. Square brackets hold non-standard residues; d marks the D form. Peptide text beside a SMILES is read from it. * marks the point of attachment. Dab(CH2SO3H) = N[C@@H](CCNCS(=O)(=O)O)C(=O)O; X2 = CC[C@@H](C)CCCCC(=O)*; Orn = NCCC[C@H](N)C(=O)O; Dab = NCC[C@H](N)C(=O)O; Mpa = O=C(O)CCS
% is scaled to controls: 0 for no effect and ±100 for the full control effect; potency is read from the fitted curve at half-maximal effect; tags tell the direction and shape of the fitted curve.

Tested on: not listed separately
Assay: qHTS assay to identify small molecule antagonists of the androgen receptor (AR) signaling pathway - cell viability counter screen (AID 743033; also: nearly all actives have a fitted effect of over 45% in size)
Conditions: AR-bla HEK293 viability, CellTiter-Glo luminescence, 16 h; activity change, negative = cytotoxicity: at 58.5 µM (top of the series) unless noted
With O=C1CCC(=O)N1CO the Potency was inconclusive: 2.4 nM [rising, full curve, poor fit]. In the case of CC[C@@H](C)CCCCC(=O)N[C@@H](CCNCS(=O)(=O)O)C(=O)N[C@H](C(=O)N[C@@H](CCNCS(=O)(=O)O)C(=O)N[C@H]1CCNC(=O)[C@H]([C@@H](C)O)NC(=O)[C@H](CCNCS(=O)(=O)O)NC(=O)[C@H](CCNCS(=O)(=O)O)NC(=O)[C@H](CC(C)C)NC(=O)[C@@H](CC(C)C)NC(=O)[C@H](CCNCS(=O)(=O)O)NC1=O)[C@@H](C)O (X2-[Dab(CH2SO3H)]T[Dab(CH2SO3H)][Dab][Dab(CH2SO3H)][dL]L[Dab(CH2SO3H)][Dab(CH2SO3H)]T; lactam 4-C), the Potency is reported as inconclusive: 2.7 nM [cytotoxic, full curve, poor fit]. With CCCCCCCC[N+](C)(C)CCCCCCCC the Potency was active: 16.9 µM and active: 12 µM. In the case of Cc1cc(-n2c(=O)[nH]c(=O)n(C)c2=O)ccc1Oc1ccc(S(=O)(=O)C(F)(F)F)cc1, the Potency is reported as inconclusive: 21300 nM [cytotoxic, partial curve, poor fit]. In the case of CCOC(=O)c1cc(-c2ccccc2)nc2ccc(C)cc12, the “activity change, negative = cytotoxicity” value is reported as inactive: 6.04%.

Target: Androgen receptor (Homo sapiens) (UniProt P10275)
UniProt P10275, sequence (P10275 whole entry, looked up): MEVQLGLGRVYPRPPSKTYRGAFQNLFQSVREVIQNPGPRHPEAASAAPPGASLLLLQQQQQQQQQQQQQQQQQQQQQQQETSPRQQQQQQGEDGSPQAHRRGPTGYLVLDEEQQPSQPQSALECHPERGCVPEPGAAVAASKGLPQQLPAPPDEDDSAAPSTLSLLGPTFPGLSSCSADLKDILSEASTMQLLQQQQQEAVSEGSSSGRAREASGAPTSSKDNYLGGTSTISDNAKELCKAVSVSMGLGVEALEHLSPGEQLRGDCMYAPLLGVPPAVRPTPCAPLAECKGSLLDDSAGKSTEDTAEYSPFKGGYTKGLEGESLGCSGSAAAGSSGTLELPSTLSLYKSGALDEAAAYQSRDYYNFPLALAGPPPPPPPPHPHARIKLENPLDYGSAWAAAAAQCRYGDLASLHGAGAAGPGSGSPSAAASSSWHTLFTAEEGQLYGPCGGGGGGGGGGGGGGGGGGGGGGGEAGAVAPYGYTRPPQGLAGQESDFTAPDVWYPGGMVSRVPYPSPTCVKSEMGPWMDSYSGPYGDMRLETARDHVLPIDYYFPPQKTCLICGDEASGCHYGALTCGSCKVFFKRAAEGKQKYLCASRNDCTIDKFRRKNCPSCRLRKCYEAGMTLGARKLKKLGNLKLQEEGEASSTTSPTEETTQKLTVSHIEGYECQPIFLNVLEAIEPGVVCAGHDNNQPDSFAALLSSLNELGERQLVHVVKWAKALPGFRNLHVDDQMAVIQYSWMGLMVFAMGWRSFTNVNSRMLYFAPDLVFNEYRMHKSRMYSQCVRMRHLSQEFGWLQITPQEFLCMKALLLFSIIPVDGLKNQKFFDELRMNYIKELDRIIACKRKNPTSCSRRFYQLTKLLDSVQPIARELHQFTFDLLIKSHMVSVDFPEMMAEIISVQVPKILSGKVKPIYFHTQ
Assay: qHTS assay to identify small molecule antagonists of the androgen receptor (AR) signaling pathway (AID 743035; active = well fitted inhibition curve with a large enough effect in the signal ratio in the repeat runs, not every such curve was filed as active; inconclusive = weak or mixed curves, or effect the other way; inactive = no such curve, though single readings can be large or run the other way; the % refers to the signal ratio)
Conditions: HEK293 AR-UAS-bla, R1881-stimulated, beta-lactamase FRET, 16 h; activity change, negative = inhibition: at 58.5 µM (top of the series) unless noted
In short: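 AR-bla HEK293 reporter cells; 4 h settle at 37C/5% CO2; compound + R1881 agonist, 16 h at 37C; LiveBLAzer B/G FRET substrate 2 h RT; fluorescence intensity read. qHTS format.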
For CC#CCC(C)[C@H](O)/C=C/[C@@H]1[C@H]2c3cccc(CCCC(=O)O)c3O[C@H]2C[C@H]1O (some centres not stated), the Potency was inconclusive: 2130 nM [rising, full curve, poor fit]. In the case of COc1cc(NCCCC(C)N)c2ncccc2c1 (configuration not stated), the activity change, negative = inhibition is reported as inconclusive: 7.45%. For Oc1ccc(Cl)c2c1CCC2, the “activity change, negative = inhibition” value was inactive: 3.19%. For CC[C@@H](C)CCCCC(=O)N[C@@H](CCNCS(=O)(=O)O)C(=O)N[C@H](C(=O)N[C@@H](CCNCS(=O)(=O)O)C(=O)N[C@H]1CCNC(=O)[C@H]([C@@H](C)O)NC(=O)[C@H](CCNCS(=O)(=O)O)NC(=O)[C@H](CCNCS(=O)(=O)O)NC(=O)[C@H](CC(C)C)NC(=O)[C@@H](CC(C)C)NC(=O)[C@H](CCNCS(=O)(=O)O)NC1=O)[C@@H](C)O (X2-[Dab(CH2SO3H)]T[Dab(CH2SO3H)][Dab][Dab(CH2SO3H)][dL]L[Dab(CH2SO3H)][Dab(CH2SO3H)]T; lactam 4-C), the activity change, negative = inhibition was inconclusive: -1.81%. In the case of CCOc1ccc(C[C@H]2NC(=O)CCSSC[C@@H](C(=O)N3CCC[C@H]3C(=O)N[C@@H](CCCN)C(=O)NCC(N)=O)NC(=O)[C@H](CC(N)=O)NC(=O)[C@H]([C@@H](C)O)NC(=O)[C@H]([C@@H](C)CC)NC2=O)cc1 ([Mpa][dY](Et)ITNCP[Orn]G-NH2; disulfide 1-6), the “activity change, negative = inhibition” value is reported as inactive: -1.79%. With Nc1c(Br)cc(Br)cc1CNC1CCC(O)CC1 (configuration not stated) the “activity change, negative = inhibition” value was inactive: -0.419%. With C[C@@H]1C(=O)NC2=Nc3cccc(Cl)c3CN21 the “activity change, negative = inhibition” value was inactive: 13.8%.
